Measurements as given in PubChem BioAssay (NCI).
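Where inhibition never reached the appropriate level, the endpoint shown equals the highest concentration tested. Otherwise, values were interpolated linearly from a five-concentration, 48-hour dose response in 96-well plates. Here, GI50 denotes the concentration required for 50% inhibition of growth. TGI denotes the concentration required for complete inhibition of growth.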 Peptide text beside a SMILES is read from it. * marks the point of attachment. Cbz = O=C(OCc1ccccc1)*; Bn = c1ccc(C*)cc1

These molecules were tested on NCI-H322M lung (assay: DTP human tumour cell line panel, 48 h).

Row | SMILES | GI50 [µM] | TGI [µM]
1 | Oc1[nH]c2ccccc2c1/C=c1/ccc2c(c1)N=C(c1ccc(C(F)(F)F)cc1)N=2 | 7.06 | 20.3
2 | COc1cc(-c2nc3ccccc3o2)cc(CN2CCCCC2)c1O | 13.2 | 40.9
3 | CN(C)C(=S)C(Cl)(c1ccccc1)c1ccccc1 |  | > 100
4 | CC1(C)Cc2c(oc3ncnc(N)c23)CS1 |  | > 100
5 | Cc1ccc(S(=O)(=O)N/N=C2\CCC3(O)CC2(C)CCC2C3CC2(C)C)cc1 (stereo unspecified) |  | > 100
6 | Cc1ccc(/C=C/C(=O)c2sc(-n3nc(-c4ccccc4)cc3-c3ccccc3)nc2C)cc1 |  | > 100
7 | NC(Cc1c[nH]c2ccc([N+](=O)[O-])cc12)C(=O)O (stereo unspecified) |  | > 100
8 | OC1CCCC2CCC[N-]C12.OC1CCCC2CCC[N-]C12.[O]=[V][OH] (stereo unspecified) | 4.14 | > 100
9 | COC(=O)c1c(O)ccc2c1c1c(n2Cc2ccccc2OC)C(=O)c2ccccc2C1=O |  | 74.6
10 | COS(C)(=O)=O |  | > 2
11 | O=C(COc1ccccc1)N(C(=O)N1CCN(c2ccccc2)CC1)S(=O)(=O)c1ccccc1 |  | > 100
12 | C(=C\C(Sc1ccccc1)c1ccccc1)/NNC1=NC(c2ccccc2)C(c2ccccc2)=NN1 (stereo unspecified) |  | > 100
13 | C[C@]12CC[C@H](O)CC1=CC[C@@H]1C2CC[C@]2(C)C(=O)NC(=O)CC12 (stereo partly specified) |  | > 100
14 | Cc1nc2cc3ccccc3cc2[nH]c1=O |  | > 100
15 | CS(=O)(=O)OCCCSCCSCCCOS(C)(=O)=O |  | > 100
16 | C=CCOCCC(CC=C)C(=O)CC(=O)OC (stereo unspecified) |  | > 100
17 | N#Cc1nc(C#N)c(Sc2ccccc2)c(Sc2ccccc2)c1Sc1ccccc1 | 4.81 | 21.3
18 | COC(=O)C(Cc1ccc(O)cc1)NC(=O)C(COCc1ccccc1)NC(=O)OCc1ccccc1 (stereo unspecified) (Cbz-Ser(Bn)-Tyr-OMe; configuration not given here) |  | 34.9
19 | CC(=O)NNc1nc(C)c(C(=O)NNC(=O)C(=O)Nc2c([N+](=O)[O-])ccc(C)c2C)s1 |  | > 100
20 | NS(=O)(=O)c1ccc(NC(=O)C2C(=O)C(=O)N(c3ccc(S(N)(=O)=O)cc3)C2=O)cc1 (stereo unspecified) |  | > 100
21 | O=c1[nH][nH]c(=O)n1/N=C/c1ccccc1 |  | > 100
22 | CCOC(=O)c1c(N2CCCC2)[nH]c(=O)c(C(c2ccc(Cl)c([N+](=O)[O-])c2)c2c(O)c(C(=O)OCC)c(N3CCCC3)[nH]c2=O)c1O |  | > 100
23 | O=CC1C(Cl)=Nc2nc3ccccc3n2C1c1ccccc1 (stereo unspecified) |  | > 100
24 | COc1ccc(-c2cn(-c3ccc(OC)c(OC)c3)c(=O)[nH]2)cc1 | > 100 | > 100
25 | CCOc1ccc(C(C[N+](=O)[O-])Sc2ccccc2N)cc1 (stereo unspecified) | 14.6 | 27.7

Row | SMILES | GI50 [µM] | TGI [µM]
26 | c1ccc(Oc2ccc(Nc3ncc(-c4ccccc4)o3)cc2)cc1 | > 25 | > 25
27 | CC(C)(C)[C@H]1CO[C@]2(c3ccccc3)[C@@H]3C[C@@H]3C(=O)N12 |  | > 100
28 | O=C(CC1C(=O)Nc2ccccc2S1(=O)=O)Nc1ccc(Cl)cc1 (stereo unspecified) |  | > 100
29 | COC(=O)c1c(C)c2c(c(C)c1C(=O)OC)-c1c(C)ccc3ccc(C)c-2c13 |  | > 100
30 | C1CSCCSCSCCS1 |  | > 100
31 | O=C(c1ccc([N+](=O)[O-])cc1)C(Br)C(Br)c1ccnc2ccccc12 (stereo unspecified) |  | 29.4
32 | Cc1cn(Cc2cccc(C3=NCCCN3)c2)c(=O)n(Cc2cccc(C3=NCCCN3)c2)c1=O |  | > 100
33 | CC(C)OC(=O)[C@H]1ON2O[C@H](O[C@@H]3CCCC[C@H]3c3ccccc3)C([Si](C)(C)c3ccccc3)[C@H]3OC(=O)[C@@H]1C32 (stereo partly specified) |  | > 100
34 | c1ccc(Cn2c(-c3ccc(-c4ccccc4)cc3)cc3ccccc32)cc1 |  | > 100
35 | Oc1ccc2ccccc2c1C=NCc1c(O)ccc2ccccc12 |  | > 100
36 | CO[C@]12S[C@@H]3CCCC[C@@]31C(C)(C)C(=O)N2c1ccccc1 |  | > 100
37 | Cc1ccc(Cl)c(NS(=O)(=O)c2ccc(-c3cnc(C4CC4)o3)cc2)c1 | 0.598 | > 100
38 | CCCCNC(=S)OCCC(C)CCCC(C)C (stereo unspecified) |  | > 100
39 | CC(C)COC1Sc2ccccc2S1 |  | 31.3
40 | N#C/C(=C1\OC(=N)C(c2ccccc2)C1=O)c1ccccc1 (stereo unspecified) |  | > 100
41 | CN1C(=O)C(C(=O)Nc2ccccn2)C2C[C@@]1(C)Oc1ccccc12 (stereo partly specified) |  | > 100
42 | Clc1ccc2c(c1)N(C1CCCN(Cc3ccccc3)C1)c1ccccc1S2 (stereo unspecified) | 4.88 | > 100
43 | COc1ccc(N2C(=O)/C(=C\c3ccccc3)SC2c2cc(OC)c(OC)c(OC)c2)cc1 (stereo unspecified) |  | > 100
44 | CN(C)Cc1ccc(NC(=O)c2cncc(C#Cc3cnc(N)c4ncccc34)c2)cc1F | 2.22 | 4.57
45 | CCN1C(=O)N(CC)C2C1NN=c1s/c(=C3\C(=O)N(C4CCCC4)c4ccccc43)c(=O)n12 (stereo unspecified) | 2.93 | > 100
46 | CN(C)CCCNC(=O)c1cc(NS(=O)(=O)c2ccc3c(c2)C(=O)c2ccccc2C3=O)cn1C |  | 41.9
47 | CCOC(=O)OC1C(Br)C2CCC1(C)C2(C)C (stereo unspecified) |  | 29.3
48 | O=C(Nc1cc(Cl)ccc1O)c1ccccc1Nc1ccnc(C(F)(F)F)c1 | 3.52 | 15.8
49 | O=[N+]([O-])c1cc(-[n+]2cc([O-])on2)ccc1Cl |  | 27.7
